# From PubChem BioAssay AID1346428 (National Center for Advancing Translational Sciences (NCATS), 2018)
# “And” between values parts separate entries of the source, which are not always exact repeats. Identical values can stand only once. Hit rate of the full screen: of about 48,000 compounds, about 1,200 (2.5%) were called active. Not shown: some 2% with an inconclusive outcome.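 How the source made its calls: active means activation of at least 60% and not above a set upper limit (about 1 call in 100 departs from these limits); inconclusive means activation of 40% to 60%, or above that upper limit; inactive means activation under 40%.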 This is one part of the list.
# Target: Probable G-protein coupled receptor 32 (Homo sapiens) (UniProt O75388)
# Sequence of UniProt O75388 (O75388 whole entry, looked up): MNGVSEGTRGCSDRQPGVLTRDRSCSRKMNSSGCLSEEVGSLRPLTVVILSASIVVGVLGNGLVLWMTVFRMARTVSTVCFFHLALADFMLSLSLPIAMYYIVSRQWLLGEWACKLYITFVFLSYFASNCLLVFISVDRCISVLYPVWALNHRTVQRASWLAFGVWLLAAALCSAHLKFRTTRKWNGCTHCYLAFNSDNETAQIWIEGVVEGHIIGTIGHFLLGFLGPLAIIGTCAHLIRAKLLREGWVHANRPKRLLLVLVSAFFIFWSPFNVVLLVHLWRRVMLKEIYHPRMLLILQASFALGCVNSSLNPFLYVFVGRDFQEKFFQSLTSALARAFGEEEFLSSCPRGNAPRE
# Assay: qHTS for Agonists of Human Resolvin D1 Receptor DRV1; further: 0% is about no effect
# Conditions: CHO-K1 GPR32 beta-arrestin PathHunter luminescence, 90 min; at 76.9 µM; active compounds read high; zero percent set by DMSO-only wells
# Outline: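 Cells are plated overnight, treated with compounds in DMSO for 90 minutes at 37 °C, and developed with PathHunter detection reagent for 1 hour before luminescence is read; signal reflects beta-arrestin binding to GPR32 in engineered CHO-K1 cells.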
row,SMILES,activation
1,CCCCN(CCCNC(=O)c1ccc(Sc2ccc(Cl)cc2)c(NC(C)=O)c1)c1ccccc1,inactive: -28.2%
2,Cc1ccc(NC(=O)CSC2=Nc3ccccc3C3=NC(Cc4ccccc4)C(=O)N23)cc1C (stereo not drawn),inactive: -20.3%
3,Cc1c(Cl)cccc1NC(=O)Cn1cc(C(=O)C2CCCCC2)c2ccccc21,inactive: 24.8%
4,CCSc1ncc(Cl)c(C(=O)Nc2ccc(S(=O)(=O)N3CCC(C)CC3)cc2)n1,inactive: -0.606%
5,Clc1ccc2nc(NCc3ccccc3)c3nncn3c2c1,inactive: -6.88%
6,O=C(O)c1cccnc1C(=O)O,inactive: -4.75%
7,COc1ccc(/C=C\C(=O)NC2CC(=O)N(c3ccc(F)cc3)C2)cc1OC (stereo not drawn),inactive: 4.05%
8,Cc1c(NC(=O)CC(C)C)cccc1-c1nc2cccnc2s1,inactive: -3.97%
9,COc1ccccc1OC(=O)Oc1ccccc1OC,inactive: -52.2%
10,O=C(CSc1cn(CCNC(=O)c2ccccc2F)c2ccccc12)Nc1ccccc1F,inactive: 31.4%
11,COc1cccc(-n2c(SCC(=O)Nc3cccc(Cl)c3)nc3c(oc4ccccc43)c2=O)c1,inactive: 1.99%
12,CCOc1ccccc1CNC(=O)c1ccc(-c2nc(CSc3ccc(C)cc3)c(C)o2)cc1,inactive: 1.48%
13,O=C(NCc1ccc(F)cc1)C1CCCN(c2ncnc3onc(-c4ccc(F)cc4)c23)C1 (stereo not drawn),inactive: -15.2%
14,COc1ccc(-n2c(=O)c3c(C)c(C)sc3n(CC(=O)NCc3ccc(C)cc3)c2=O)c(OC)c1,inactive: -10%
15,CS(=O)(=O)c1oc(-c2ccc(F)cc2)nc1S(=O)(=O)c1ccc(Cl)cc1,inactive: 2.91%
16,O=C(CSc1nc2c(sc3ccccc32)c(=O)n1CCCC(=O)NC1CCCC1)Nc1ccc(F)cc1,inactive: -17.4%
17,COc1ccc(Cl)cc1NC(=O)CSC1=Nc2ccccc2C2=NC(CC(=O)NC3CCCCC3)C(=O)N12 (stereo not drawn),inactive: -4.55%
18,CCOC(=O)CNC(=O)c1ccc(-c2nn(C)c(=O)c3ccccc23)cc1,inactive: 41.9%
19,CC(=O)Nc1ccc(C(=O)O)cc1,inactive: 11%
20,Cc1ccc(Nc2c(-c3ccsc3)nc3cccc(C)n23)cc1,inactive: -29.6%
21,CCc1ccc(NCc2cc3ccc(OC)cc3n(CC(=O)Nc3ccc(C(C)C)cc3)c2=O)cc1,inactive: -34%

row,SMILES,activation
1,Cc1ccc(NC(=O)c2ccc3oc(=O)c(S(=O)(=O)c4ccccc4)cc3c2)cc1C,inactive: -0.823%
2,CC(NC(=O)C1CCN(C(=O)c2ccc(-n3ccc4ccccc43)s2)CC1)c1ccccc1 (stereo not drawn),inactive: -10.7%
3,COc1ccccc1NC(=O)C1=C(C)Nc2nc(SCc3ccc(Cl)cc3)nn2C1c1ccccc1Cl (stereo not drawn),inactive: -4.66%
4,Cc1ccc(NC(=O)Cn2nnc(-c3nc(-c4ccncc4)no3)c2N)c(C)c1,inactive: -8.77%
5,CCOC(=O)C1CCN(C(=O)CN2c3ccc(C(C)C)cc3-c3ccccc3S2(=O)=O)CC1,inactive: -16%
6,CCOc1ccc(OC(=O)c2cn(-c3cccc(OC)c3)c(=O)c3ccccc23)cc1,inactive: -14.5%
7,COc1cc(C2NC(=O)N(C)C3=C2C(=O)N(c2cccc(Cl)c2)C3)ccc1O (stereo not drawn),inactive: 8.89%
8,CCOC(=O)c1c(NC(C)=O)c2c3c(sc2n1Cc1ccc(Cl)cc1)CCCC3,inactive: -21.5%
9,Cc1cccc2sc(N3CCN(C(=O)CS(=O)(=O)c4ccc(F)cc4)CC3)nc12,inactive: 5.94%
10,O=C(CSc1nncn2c1cc1occc12)Nc1ccccc1C(F)(F)F,inactive: -18.4%
11,CCOC(=O)C1CCCN(S(=O)(=O)c2ccc3c(c2)CCN3C(=O)CC)C1 (stereo not drawn),inactive: 10.2%
12,CCc1ccccc1NC(=O)CN(c1cccc(C)c1C)S(C)(=O)=O,inactive: 18.7%
13,N#Cc1cccc(Nc2ncnc3c2cnn3-c2cccc(Cl)c2)c1,inactive: -0.53%
14,Cc1ccc(Cl)cc1-n1ncc2c(NC3CCCCC3)ncnc21,active: 67.6%
15,Cc1ccc(C(=O)O)cc1-n1c(C)ccc1-c1ccccc1,inactive: 3.75%
16,CCOC(=O)c1c(C)[nH]c(CCC(=O)Nc2c(Cl)cc(OC)cc2OC)c1C,inactive: -17.5%
17,COc1cc(OC)c2c(C)c(CC(=O)NCCc3ccccc3OC)c(=O)oc2c1,inactive: 6.6%
18,CCc1ccc(S(=O)(=O)c2cnc3ccc(OC)cc3c2N2CCCC(C)C2)cc1 (stereo not drawn),inactive: -19.8%
19,Cc1cc(C(=O)N2CCN(c3ccc(F)cc3)CC2)c2c(C)nn(-c3cccc(Cl)c3C)c2n1,inactive: -7.64%
20,CCCc1nc2nc(C)c(NS(=O)(=O)c3ccc(F)cc3)c(=O)n2[nH]1,inactive: 2.43%
21,COc1ccc(CNC(=O)Cn2c(=O)nc(-c3ccccc3F)c3cc(Cl)ccc32)cc1OC,inactive: -0.653%

row,SMILES,activation
1,COC(=O)c1cccc(Nc2c(-c3ccc(OC)cc3)nc3nc[nH]n23)c1,inactive: -22.5%
2,CCOC(=O)c1ccc(NC(=O)C(CC)Sc2nnc3c4ccccc4n(C)c3n2)cc1 (stereo not drawn),inactive: -9.5%
3,Cc1ccc(C)c(NC(=O)Cn2nnc(C(=O)NCCc3ccccc3)c2N)c1,inactive: -3%
4,Cc1cc(C)c(NC(=O)Cn2c(=O)n(Cc3ccc4c(c3)OCO4)c(=O)c3ccccc32)c(C)c1,inactive: -16%
5,CCC1=Nc2cc(C(=O)NCc3ccccc3Cl)ccc2Sc2ccc(C)cc21,inactive: -27%
6,CC(C)(C)OC(=O)N1CCC(c2c(C(=O)NCc3ccccc3)cnn2-c2ccccc2)CC1,inactive: -6.91%
7,CCCCn1c(=N)c(S(=O)(=O)c2ccc(Cl)cc2)cc2c(=O)n3cccc(C)c3nc21,inactive: -7.59%
8,COc1ccccc1CNC(=O)CCc1c(C)nc2c(c(C)nn2-c2ccc(C)c(C)c2)c1C,inactive: 3.07%
9,CC1CCC(NC(=O)c2ccc3c(c2)N(Cc2ccccc2)C(=O)c2ccccc2S3(=O)=O)CC1 (stereo not drawn),inactive: -7.54%
10,O=C(NC(=O)c1ccccc1)Nc1ccc(-n2nc(C(F)(F)F)cc2C(F)(F)F)cc1,inactive: 6.23%
11,CCc1ccc(CNC(=O)c2cc3c(=O)n(CC)c4ccccc4c3s2)cc1,inactive: 11.5%
12,Cc1cccc(Nc2c(-c3cccs3)nc3nc(C)cc(C)n23)c1,inactive: -25.6%
13,CCOc1ccccc1CNC(=O)CN1C(=O)CSc2ccc(S(=O)(=O)N3CCOCC3)cc21,inactive: -18.2%
14,COc1ccc(NC(=O)CN(C)S(=O)(=O)c2ccc3c(c2)CCC(=O)N3)c(OC)c1,inactive: -3.41%
15,COc1ccc(OC)c(NC(=O)Cn2c(=O)n(CC3CCCO3)c(=O)c3cc(OC)c(OC)cc32)c1 (stereo not drawn),inactive: -29.9%
16,Cc1ccc(CNC(=O)c2cnc(N3CCCCC3)c3ccccc23)cc1,inactive: -2.54%
17,CCc1ccc(NC(=O)CSc2nc3c(sc4ccccc43)c(=O)n2CCCOC)cc1,inactive: -4.93%
18,O=C(c1ccc2c(c1)CCN2S(=O)(=O)c1ccccc1)N1CCN(c2cccc(Cl)c2)CC1,inactive: -15.6%
19,CCOC(=O)CNc1nc2ccccc2n2c(C)nnc12,inactive: 6.23%
20,CCN1CCC[C@H]1CNC(=O)c1c(O)c(Cl)cc(Cl)c1OC,inactive: -1.35% and inactive: 0.943%
21,Cc1ccc(C)c(OCCn2cc(C(=O)c3cccs3)c3ccccc32)c1,inactive: -13.4%

row,SMILES,activation
1,O=[N+]([O-])c1ccc(S(=O)(=O)NCc2nc3cccnc3n2Cc2ccccc2Cl)cc1,inactive: -16.7%
2,Cc1cccc(C(=O)N2CCc3cc(CNC(=O)c4ccc(Br)o4)ccc32)c1,inactive: -22%
3,O=c1nc2c(-c3ccc(F)cc3Cl)n[nH]n2c2ccccc12,inactive: 6.3%
4,COCc1cc(C)nc2sc(C(=O)Nc3ccc(OC(F)(F)F)cc3)c(N)c12,inactive: 26.4%
5,COc1ccc(C)cc1NC(=O)Cn1c(=O)nc(-c2ccccc2F)c2cc(Cl)ccc21,inactive: -15.8%
6,COC(=O)c1cc(NC(=O)C2CCCN(S(=O)(=O)c3c(C)n[nH]c3C)C2)cc(C(=O)OC)c1 (stereo not drawn),inactive: 3.8%
7,Cc1c(C(=O)OCC2CCCCC2)[nH]c2c1C(=O)CC(c1ccc(F)cc1)C2 (stereo not drawn),inactive: 0.488%
8,CCCCCSc1nnc2c(n1)OC(CC)Nc1ccc(Br)cc1-2 (stereo not drawn),inactive: 25.4%
9,CN1C(C(=O)c2ccccc2)=C(NC(=O)c2ccccc2Br)c2ccccc2S1(=O)=O,inactive: -24.8%
10,COc1ccc(NC(=O)Nc2cccc(OCc3cc(=O)n4cccc(C)c4n3)c2)c(OC)c1,inactive: -14.6%
11,COCCn1c(C)cc(O)c(C(c2ccc(Cl)cc2)N2CCN(c3ccccc3)CC2)c1=O (stereo not drawn),inactive: -8.02%
12,O=S(=O)(c1ccc2[nH]c3c(c2c1)CCCC3)N1CCN(c2cccc(C(F)(F)F)c2)CC1,inactive: -2.28%
13,Cc1nc2ccc(S(=O)(=O)NC(C(=O)N3CCN(c4ccc(Cl)cc4)CC3)C(C)C)cc2s1 (stereo not drawn),inactive: 3.21%
14,CCc1ccc(NC(=O)Cc2csc(COc3cccc(C)c3)n2)cc1,inactive: 11.4%
15,O=c1n(Cc2ccc(Cl)cc2)c2ccccc2c2nc(-c3ccccc3)nn12,inactive: -10.1%
16,Cc1cc(C)cc(Nc2nc3ccccc3n3cnnc23)c1,inactive: -16.4%
17,COc1cc(C2N=C(N)Nc3nc4ccccc4n32)ccc1OCC(=O)O (stereo not drawn),inactive: 14.7%
18,COc1ccc(-c2cc(C(C)=O)c(C)n2CCC(=O)Nc2ccc(C)cc2Cl)cc1,inactive: -14%
19,Cc1cc(C)cc(-n2ccnc2SCC(=O)Nc2ccc(C)cc2C)c1,inactive: 9.48%
20,CC(=O)c1ccc(N2CCN(c3nc4c(S(=O)(=O)c5ccc(C)c(C)c5)nnn4c4ccc(Cl)cc34)CC2)cc1,inactive: 16.7%
